According to PubChem BioAssay AID686970 (National Center for Advancing Translational Sciences (NCATS), 2013):
Out of some 360,000 compounds screened, about 6,000 (1.7%) were called active. The shares of active, inactive and inconclusive entries below differ from those in the screen. Calls come from the whole dose curve; as a rule, active = well fitted cell-killing curve with a large enough effect; inconclusive = small, poorly fitted or top-dose-only effect, or effect the other way; inactive = flat fitted curve, though single readings scatter. No potency is given beside an inconclusive call; the fits are too rough.

assay: qHTS for induction of synthetic lethality in tumor cells producing 2HG: qHTS for the HT-1080-NT fibrosarcoma cell line; details: HT-1080-NT fibrosarcoma viability, CellTiter-Glo ATP luminescence, 48 h; activity, negative = less viability: at 46.1 µM (top of the series) unless noted;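 note: NT is the 2HG producing partner of a matched IDH1 knockdown line; nearly all actives have a fitted effect of over 55% in size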;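 for activity, negative = less viability: 0% = DMSO-treated cells and -100% = media-only wells without cells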
Summary of the method: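 Viability of the 2HG-overproducing fibrosarcoma line after 48 hours of compound exposure at 37 degrees C was determined by luminescence with CellTiter-Glo, and concentration-effect curves were then fitted and categorized.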
Potency is the fitted concentration of half-maximal effect; tags give direction and shape of the fitted curve.

| Structure (SMILES) | Potency | activity, negative = less viability |
| --- | --- | --- |
| CCCCNS(=O)(=O)c1ccc2nc(SCC(=O)Nc3ccccc3Cl)[nH]c2c1 | inconclusive [cytotoxic, partial curve] |  |
| O=C(CNC(=O)c1ccc(Cl)cc1Cl)OCCCn1c(=O)[nH]c2ccccc21 |  | inactive: 1.55% |
| COc1ccc(C2=NOC(COc3ccc4c(C)cc(=O)oc4c3)C2)c(OC)c1 (stereo unspecified) | inconclusive [cytotoxic, full curve] |  |
| Cc1ccc2nc(/N=C(\N)NC(=O)NC3CCCCC3)nc(C)c2c1 | active: 14.6 µM |  |
| COc1ccc(Br)cc1C(=O)Nc1ccc(Cc2ccncc2)cc1 | inconclusive [cytotoxic, single point] |  |
| O=C(Nc1ccccc1)OCC(CN1CCCCC1)OC(=O)Nc1ccccc1 (stereo unspecified) |  | inactive: 42.8% |
| Cc1c(C(=O)OCC(C)C)[nH]c2c1C(=O)CC(c1cccs1)C2 (stereo unspecified) | active: 1.64 µM |  |
| COC(=O)c1ccc(NC(=O)CN2C(=O)CNC2=O)cc1 |  | inactive: 4.84% |
| O=C(COc1cccc2c1CCN(Cc1ccccc1)C2=O)NCc1ccco1 |  | inactive: -1.14% |
| Clc1ccc(-c2nc3n(n2)Cc2ccccc2-3)cc1 |  | inactive: -13.2% |
| Cc1cc(Nc2ccc3c(c2)OCCO3)c2cccc(C)c2n1 | inconclusive [cytotoxic, partial curve] |  |
| O=S(=O)(Cc1ccc(Cl)cc1Cl)c1ccc(Cl)cc1 | inconclusive [cytotoxic, full curve] |  |
| Cc1cc2nc(-c3ccc(SCc4ccc(C(=O)O)cc4)nc3)[nH]c2cc1C | inconclusive [cytotoxic, single point] |  |
| O=C(Nc1ccccn1)c1onc2c1CCCC2 | inconclusive [cytotoxic, single point] |  |
| O=C(COC(=O)c1ccc(O)cc1)NCC1COc2ccccc2O1 (stereo unspecified) |  | inactive: -4.37% |
| O=C(Nc1cccc(-c2cn3ccccc3n2)c1)c1ccccc1 |  | inactive: -10.6% |
| O=C(Nc1ccc(-c2nc3ccccc3[nH]2)cc1)c1ccc2c(c1)OCO2 | inconclusive [cytotoxic, single point] |  |
| Cc1ccc2c(c1)Oc1ccc(NC(=O)CCl)cc1C(=O)N2 | active: 3.66 µM |  |
| COc1cc(Nc2c3c(nc4ccccc24)CCCC3)cc(OC)c1OC | inconclusive [cytotoxic, partial curve] |  |
| Cc1nn(CCC(=O)NNC(=S)Nc2ccccc2)c(C)c1Br | inconclusive [rising, single point] |  |
| O=C(CN(c1ccccc1)S(=O)(=O)c1ccccc1)Nc1ccc(F)cc1 |  | inactive: -7.86% |
| CCN1CCN(Cc2cccc(Oc3ccc(Cl)cc3)c2)CC1 | inconclusive [cytotoxic, single point] |  |
| Nc1ccc(C(=O)N2CCN(S(=O)(=O)c3ccc(Cl)cc3)CC2)cc1[N+](=O)[O-] | inconclusive [cytotoxic, partial curve, poor fit] |  |
| COc1ccc(-n2cnc3sc4c(c3c2=O)CCCC4)cc1 |  | inactive: 0.55% |

| Structure (SMILES) | Potency | activity, negative = less viability |
| --- | --- | --- |
| CC1(C(=O)NCC2CCOCC2)Cc2c(-c3cccc(C(F)(F)F)c3)ccnc2O1 (stereo unspecified) | inconclusive [cytotoxic, partial curve, poor fit] |  |
| COc1ccc(-c2cc(CNc3nc(NCc4ccccc4OC)nc4ccsc34)on2)cc1 | active: 18.4 µM |  |
| Cc1cccc(-c2cccc(NC(=O)C3CCCN(Cc4cccnc4)C3)c2)c1 (stereo unspecified) | inconclusive [cytotoxic, single point] |  |
| Nc1nc(C2CC2)c(Sc2sc(N)nc2C2CC2)s1 | inconclusive [cytotoxic, partial curve] |  |
| O=[N+]([O-])c1ccc(/C=N/n2cnc3ccccc32)s1 | inconclusive [cytotoxic, single point] |  |
| Cn1ccnc1C(=O)c1cc(SCC(=O)NCc2ccccc2)nc2ccccc12 | active: 10.3 µM |  |
| Cn1c(=O)c2c(nc(NCc3ccc4c(c3)OCO4)n2Cc2ccc(F)cc2)n(C)c1=O | inconclusive [cytotoxic, single point] |  |
| O=C(CCc1ccccc1)NC(c1cccs1)c1cc(Cl)c2cccnc2c1O (stereo unspecified) | inconclusive [cytotoxic, full curve, poor fit] |  |
| COc1cc(OC)cc(-c2c(-c3cccs3)c3cc(-c4ccc5[nH]ccc5c4)ccc3n2C)c1 |  | inactive: -0.754% |
| O=C(C[C@@H]1C/C=C\C[C@H](Cc2ccc(F)cc2)C(=O)OCCNC1=O)N[C@H](CO)Cc1ccccc1 |  | inactive: 8.6% |
| COc1cc(-c2ccc3cc(OC)c(OC)c(OC)c3c2)cc(OC)c1OC | inconclusive [cytotoxic, single point] |  |
| COc1ccc(CCNC(=O)Nc2nc(C(N)COCc3ccccc3)cs2)cc1OC (stereo unspecified) | inconclusive [cytotoxic, partial curve] |  |
| O=C(CSC1=NCCS1)NC1CCCC1 | inconclusive [rising, single point] |  |
| COc1ccc2cc1Oc1ccc(cc1)CC1c3c(cc(OC)c4c3Oc3cc5c(cc3O4)CCNC5C2)CCN1C (stereo unspecified) | inconclusive [cytotoxic, single point] |  |
| CCN(Cc1ccccc1)S(=O)(=O)c1ccc(C(=O)N(CCCN(C)C)c2nc3ccc(F)cc3s2)cc1 | inconclusive [cytotoxic, single point] |  |
| CCC(C)(C)c1ccc(OCCCC[n+]2ccccc2)c(C(C)(C)CC)c1 | active: 16.4 µM |  |
| N#CCC(CNc1ncc(C(F)(F)F)cc1Cl)OC(=O)c1cccc([N+](=O)[O-])c1 (stereo unspecified) | inconclusive [cytotoxic, single point] |  |
| O=C(O)c1ccccc1C(=O)NNc1ccc(F)cc1F | inconclusive [cytotoxic, partial curve] |  |
| Nc1nc(CN2CCN(c3cccc(Cl)c3)CC2)nc(N2CCCc3ccccc32)n1 | inconclusive [cytotoxic, single point] |  |
| COc1ccc(C2CC3(CC(C)(C)NC(SC)=N3)Oc3cc(O)cc(C)c32)cc1 (stereo unspecified) | inconclusive [cytotoxic, partial curve] |  |
| O=C(c1ccc(S(=O)(=O)Cc2ccccc2F)c([N+](=O)[O-])c1)N1CCCC1 | inconclusive [cytotoxic, single point] |  |
| CC(C)Oc1ccc(CN2CCCC(CO)(Cc3ccc(F)cc3)C2)cc1 (stereo unspecified) | inconclusive [cytotoxic, partial curve] |  |
| Cc1[nH]c2ccccc2c1C(C#N)(C#N)C1C(=O)c2ccccc2C1=O | active: 18.4 µM |  |
| CCc1nnc(NS(=O)(=O)c2ccc(NCc3ccccc3O)cc2)s1 |  | inactive: 6.95% |

| Structure (SMILES) | Potency | activity, negative = less viability |
| --- | --- | --- |
| COc1ccc2c(-c3ccccc3)cc(SC(C)C(N)=O)nc2c1 (stereo unspecified) | inconclusive [cytotoxic, partial curve] |  |
| O=C(CN1CCN(C2CCCCC2)CC1)Nc1ccccc1N1CCCCC1 | inconclusive [cytotoxic, single point] |  |
| CC(=O)Nc1ccc(-c2ccnc3c2CC(C)(C(=O)Nc2ccc4c(c2)OCO4)O3)cc1 (stereo unspecified) | inconclusive [cytotoxic, partial curve] |  |
| COCC(C)n1c(C)cc(C(=O)CSc2nnc(Nc3ccccc3F)s2)c1C (stereo unspecified) |  | inactive: -2.94% |
| CCOC(=O)c1c(N2C(=O)C=CC2=O)sc(C)c1C | active: 3.98 µM |  |
| CCOC(=O)c1c(C)[nH]c(C(=O)COC(=O)C2(C)CC2(Cl)Cl)c1C (stereo unspecified) |  | inactive: 13.1% |
| COc1ccc(C2CC(c3ccc(C(F)(F)F)cc3)=NN2c2ccc(S(N)(=O)=O)cc2)cc1 (stereo unspecified) | inconclusive [cytotoxic, single point] |  |
| COc1cc(C(=O)Nc2nnc(-c3sccc3C)s2)cc(OC)c1OC | inconclusive [cytotoxic, single point] |  |
| CCOC(=O)C1(C)NC(c2cccs2)C2C(=O)N(c3ccccc3)C(=O)C21 (stereo unspecified) |  | inactive: 14.7% |
| CCc1ccc2c(c1)CCCN2C(=O)c1ccccc1C(=O)O | inconclusive [cytotoxic, single point] |  |
| Clc1cccc(CNc2ccn3nc(-c4cccc(OCc5ccccc5)c4)cc3n2)c1 | inconclusive [cytotoxic, single point] |  |
| Cc1ccccc1N(CC(=O)N/N=C/c1ccccc1Cl)C(=O)c1ccccc1 |  | inactive: -2.86% |
| COc1cccc(/C=N/n2c(SC)nnc2-c2ccccc2)c1OC |  | inactive: -2.94% |
| O=C(Nc1ccc(F)cc1)c1ccc2c(=O)n(CC3CCCO3)c(=S)[nH]c2c1 (stereo unspecified) | inconclusive [cytotoxic, single point] |  |
| Cc1nn(C)c(C(=O)NNC(=S)Nc2ccc(F)cc2)c1[N+](=O)[O-] | inconclusive [cytotoxic, single point] |  |
| CCOC(=O)c1c(C)oc2c1cc(O)c1ccccc12 |  | inactive: -5.09% |
| Cc1ccc(-c2cc(C(=O)NCCCN3CCOCC3)c3ccccc3n2)cc1C |  | inactive: -22.1% |
| N#Cc1cc2c(nc1SCC(=O)Nc1nccs1)CCCCC2 | inconclusive [cytotoxic, single point] |  |
| Cc1ccc(-n2c(-c3c(-c4ccccc4)noc3C)n[nH]c2=S)cc1 | inconclusive [cytotoxic, single point] |  |
| CC(C)C(C)(C#N)NC(=O)CSc1ncnc2sc(-c3ccccc3)cc12 (stereo unspecified) | active: 12.6 µM |  |
| C/C(=N\N=C(N)N)c1ccc(Cl)cc1Cl | active: 13 µM |  |
| O=C(C1CCN(S(=O)(=O)c2cccc3nsnc23)CC1)N1CCCCC1 |  | inactive: 4.88% |
| CCCCCC(O)(c1ccc(OCC)cc1)C(CN1CCOCC1)c1ccccc1 (stereo unspecified) | inconclusive [cytotoxic, single point] |  |
